The target in test [1] is T1, Mpe1-TAPS (S. cerevisiae), P35728.
T1 chain: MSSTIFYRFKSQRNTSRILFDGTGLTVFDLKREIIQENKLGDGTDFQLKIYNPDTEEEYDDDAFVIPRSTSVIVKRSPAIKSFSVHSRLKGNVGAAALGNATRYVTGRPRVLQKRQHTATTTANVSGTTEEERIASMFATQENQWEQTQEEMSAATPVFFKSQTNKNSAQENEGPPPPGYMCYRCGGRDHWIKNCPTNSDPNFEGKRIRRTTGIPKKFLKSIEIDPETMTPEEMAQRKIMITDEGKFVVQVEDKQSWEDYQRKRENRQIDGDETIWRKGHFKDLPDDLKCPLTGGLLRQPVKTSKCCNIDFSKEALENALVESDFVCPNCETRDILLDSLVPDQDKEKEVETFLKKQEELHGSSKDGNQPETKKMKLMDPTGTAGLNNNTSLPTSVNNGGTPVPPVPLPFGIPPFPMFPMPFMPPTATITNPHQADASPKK
Description: SEC; TAPS affinity purification from tagged yeast strain, then Superose 6 PC 3.2/30 in 20 mM HEPES pH 7.9, 150 mM KCl, 3 mM DTT, 0.5 mM Mg(OAc)2, 0.5 mM MnCl2; fractions on Coomassie-stained SDS-PAGE. The settings on record: remark: other sources report otherwise.

Test [2] concerns the target Pap1-TAPS (S. cerevisiae), P29468. The description is as above. The settings on record: remark: other sources report otherwise.

These are yes or no findings as the source states them, for the method shown. Some entries that bind do so weakly or less than the wild type.

B1: Yth1, Q06102 1-208 (protein)
chain: MSLIHPDTAKYPFKFEPFLRQEYSFSLDPDRPICEFYNSREGPKSCPRGPLCPKKHVLPIFQNKIVCRHWLRGLCKKNDQCEYLHEYNLRKMPECVFFSKNGYCTQSPDCQYLHIDPASKIPKCENYEMGFCPLGSSCPRRHIKKVFCQRYMTGFCPLGKDECDMEHPQFIIPDEGSKLRIKRDDEINTRKMDEEKERRLNAIINGEV
Take B1: the binding result in test [1] is “binds”.

B2: Fip1, P45976 1-327 (protein)
chain: MSSSEDEDDKFLYGSDSELALPSSKRSRDDEADAGASSNPDIVKRQKFDSPVEETPATARDDRSDEDIYSDSSDDDSDSDLEVIISLGPDPTRLDAKLLDSYSTAATSSSKDVISVATDVSNTITKTSDERLITEGEANQGVTATTVKATESDGNVPKAMTGSIDLDKEGIFDSVGITTIDPEVLKEKPWRQPGANLSDYFNYGFNEFTWMEYLHRQEKLQQDYNPRRILMGLLSLQQQGKLNSANDTDSNLGNIIDNNNNVNNANMSNLNSNMGNSMSGTPNPPAPPMHPSFPPLPMFGSFPPFPMPGMMPPMNQQPNQNQNQNSK
With B2, the binding result in test [1] is listed as “binds”.

B3: Mpe1, P35728 1-441 (protein)
chain: T1 chain
Regarding B3, the binding entry in test [2] is reported as “binds”.

B4: Pap1, P29468 1-568 (enzyme)
chain: MSSQKVFGITGPVSTVGATAAENKLNDSLIQELKKEGSFETEQETANRVQVLKILQELAQRFVYEVSKKKNMSDGMARDAGGKIFTYGSYRLGVHGPGSDIDTLVVVPKHVTREDFFTVFDSLLRERKELDEIAPVPDAFVPIIKIKFSGISIDLICARLDQPQVPLSLTLSDKNLLRNLDEKDLRALNGTRVTDEILELVPKPNVFRIALRAIKLWAQRRAVYANIFGFPGGVAWAMLVARICQLYPNACSAVILNRFFIILSEWNWPQPVILKPIEDGPLQVRVWNPKIYAQDRSHRMPVITPAYPSMCATHNITESTKKVILQEFVRGVQITNDIFSNKKSWANLFEKNDFFFRYKFYLEITAYTRGSDEQHLKWSGLVESKVRLLVMKLEVLAGIKIAHPFTKPFESSYCCPTEDDYEMIQDKYGSHKTETALNALKLVTDENKEEESIKDAPKAYLSTMYIGLDFNIENKKEKVDIHIPCTEFVNLCRSFNEDYGDHKVFNLALRFVKGYDLPDEVFDENEKRPSKKSKRKNLDARHETVKRSKSDAASGDNINGTTAAVDVN
Take B4: the binding result in test [1] is listed as “binds”.
